We go through 56 molecules from article PMC4336329 (PLoS ONE, 2015).

Out of some 310,000 compounds screened, about 2,200 (0.71%) showed an effect of 50% or more. The effect is printed as a negative number. The list shows a part of the results.

The target in the test is human ether-à-go-go-related gene (hERG) potassium channel (human, UniProt Q12809). Kind of test: primary screen, population patch clamp on CHO cells stably expressing hERG.
human ether-à-go-go-related gene (hERG) potassium channel, sequence (Q12809 whole entry, looked up): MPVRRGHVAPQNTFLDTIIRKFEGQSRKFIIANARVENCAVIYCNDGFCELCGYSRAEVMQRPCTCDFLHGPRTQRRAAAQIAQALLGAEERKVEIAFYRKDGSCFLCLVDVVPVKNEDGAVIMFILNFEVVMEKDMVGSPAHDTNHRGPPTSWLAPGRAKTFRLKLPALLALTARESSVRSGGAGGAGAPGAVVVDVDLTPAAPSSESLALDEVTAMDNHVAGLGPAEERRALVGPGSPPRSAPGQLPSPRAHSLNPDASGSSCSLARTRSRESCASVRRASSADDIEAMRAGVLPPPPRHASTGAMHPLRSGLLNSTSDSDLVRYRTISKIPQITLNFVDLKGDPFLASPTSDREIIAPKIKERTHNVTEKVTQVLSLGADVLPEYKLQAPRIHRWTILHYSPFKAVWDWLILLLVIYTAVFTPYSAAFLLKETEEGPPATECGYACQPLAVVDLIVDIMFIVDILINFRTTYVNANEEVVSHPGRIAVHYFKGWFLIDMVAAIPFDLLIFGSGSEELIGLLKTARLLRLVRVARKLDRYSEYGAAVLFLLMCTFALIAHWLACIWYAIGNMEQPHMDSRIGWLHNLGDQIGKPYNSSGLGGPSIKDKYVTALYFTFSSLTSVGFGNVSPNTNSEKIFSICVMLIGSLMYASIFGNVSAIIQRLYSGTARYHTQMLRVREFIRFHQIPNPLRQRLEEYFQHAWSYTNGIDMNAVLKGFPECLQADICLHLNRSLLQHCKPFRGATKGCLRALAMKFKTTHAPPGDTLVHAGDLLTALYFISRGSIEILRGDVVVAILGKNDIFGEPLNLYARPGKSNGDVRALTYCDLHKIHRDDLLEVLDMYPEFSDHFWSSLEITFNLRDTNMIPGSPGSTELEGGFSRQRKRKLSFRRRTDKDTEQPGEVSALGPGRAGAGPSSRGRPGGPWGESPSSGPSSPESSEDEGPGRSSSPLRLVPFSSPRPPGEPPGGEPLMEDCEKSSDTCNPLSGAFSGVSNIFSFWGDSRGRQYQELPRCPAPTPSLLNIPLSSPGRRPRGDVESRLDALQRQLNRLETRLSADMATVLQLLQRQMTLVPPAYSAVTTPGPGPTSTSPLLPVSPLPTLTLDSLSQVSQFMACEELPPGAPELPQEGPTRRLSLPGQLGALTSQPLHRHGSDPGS
For `COC(=O)c1nc(NC(=O)c2ccc(Br)cc2)n[nH]1`, the “hERG current change (%, negative = inhibition) at 1uM” value is 5.35%.
Under `CC(C)(C)C1(O)CC(C(F)(F)F)=NN1C(=O)Cc1ccc([N+](=O)[O-])cc1` (centres unmarked) stands 2.23%.
For `O=C(Cc1ccc(S(=O)(=O)N2CCCC2)s1)Nc1nc2c(s1)CCCC2` the value was 10.1%.
Regarding `COC(=O)c1ccc(CSc2nnc(C)n2N)o1`, the “hERG current change (%, negative = inhibition) at 1uM” value is on record as -0.332%.
Under `CC(C)(C)SC(=O)CC1NS(=O)(=O)OC2CCCCC12` (centres unmarked) stands 10.8%; under `CCOC(=O)N1CCN(C(=O)c2ccc3nc4cc(Cl)ccc4c(=O)n3c2)CC1`, -13.7%; under `CC(NC(=O)C12CC3CC(CC(O)(C3)C1)C2)c1ccc(Cl)cc1Cl` (centres unmarked), 15.3%.
Turning to `CCOC(=O)c1ccc(N=Cc2c(O)c3ccccc3oc2=O)cc1`, the “hERG current change (%, negative = inhibition) at 1uM” value is on record as 10.3%.
For `Cc1ccc(C)c(NS(=O)(=O)c2ccc(NC(=O)c3ccco3)cc2)c1`, the “hERG current change (%, negative = inhibition) at 1uM” value was 10.5%.
For `COc1ccc2oc(C(=O)Nc3ccccn3)c(C)c2c1`, the “hERG current change (%, negative = inhibition) at 1uM” value is 16.1%.
Under `O=[N+]([O-])c1cccc(NC(=S)N2CCN(c3ccccn3)CC2)c1` stands 11.1%; under `Nc1nc(SCC(=O)N2CCCC2)[nH]c(=O)c1NC(=O)c1ccco1`, 5.4%.
Under `CCCN(CCC)CCNC(=O)C1CCCN(S(=O)(=O)c2ccc3c(c2)oc(=O)n3C)C1` (centres unmarked) stands 18.2%; under `COc1cc(NC(=O)Cn2c(=O)n(-c3cccc(C)c3)c(=O)c3c(C)c(C)sc32)cc(OC)c1`, 6.01%; under `CC(N)Cc1cn(Cc2ccccc2)c2ccccc12.Cl` (centres unmarked), 7.84%.
Under `COCCNC(=O)/C(C#N)=C/c1cccs1` stands 4.96%.
For `COC(=O)c1ccc(N2CCN(C(=O)c3ccccc3)CC2)c(NC(C)=O)c1`, the “hERG current change (%, negative = inhibition) at 1uM” value is recorded as -14%.
For the molecule `COC(=O)c1sc(NC(=O)CCCn2nc([N+](=O)[O-])cc2C)c(C(=O)OC)c1C`, the “hERG current change (%, negative = inhibition) at 1uM” value came out at 1.06%.
For the molecule `CC(C)OC(=O)Cn1cnc2ccc(Br)cc2c1=O`, the “hERG current change (%, negative = inhibition) at 1uM” value is recorded as 7.88%.
For `Cc1ccc(C(=O)Nc2c(N)nc(SCC(=O)Nc3cc(C)on3)[nH]c2=O)cc1` the value was 12.1%; for `CC1CCCN(C2=C(NS(=O)(=O)c3ccc(Br)cc3)C(=O)c3ccccc3C2=O)C1` (centres unmarked), 6.8%.
As for `COc1ccccc1/C=C/[C@@H]1C[C@H]2CN(Cc3cccc(Cl)c3)C(=O)[C@]23CCCN13`, the “hERG current change (%, negative = inhibition) at 1uM” value is listed as -17.3%.
For `CC(C)Oc1ccc(C(CC(=O)O)NC(=O)C2CCCCC2)cc1` (centres unmarked) the value was 1.77%; for `Cc1cccc(CCNC(=O)c2cccc(NC3=NC4CS(=O)(=O)CC4S3)c2)c1` (centres unmarked), 10.6%.
For `OC(COc1ccccc1)CN1CCCC1` (centres unmarked) the value was 9.18%; for `O=C(NCCNC(=O)c1cccnc1)c1ccc(Br)cc1`, 29.6%.
Under `Cc1sc2nc(SCC(=O)NCc3ccco3)n(-c3ccccc3)c(=O)c2c1C` stands 10.7%.
Regarding `Cc1ccc(OCC(=O)N(Cc2cccs2)C2CCS(=O)(=O)C2)cc1C` (centres unmarked), the “hERG current change (%, negative = inhibition) at 1uM” value is recorded as 17.5%.
Turning to `Cc1cc(C)c(NC(=O)CSc2ccc(-c3cccnc3)nn2)c(C)c1`, the “hERG current change (%, negative = inhibition) at 1uM” value is listed as 7.63%.
For `COCCNC(=O)c1cccc(OC2CCN(Cc3ccccc3OCCO)CC2)c1` the value was 4.52%; for `CCOC(=O)c1c(C)[nH]c(C)c1S(=O)(=O)NCCc1cccs1`, 5.32%; for `O=C(NC1CCCCC1)N1CCCC(CNS(=O)(=O)Cc2ccccc2)C1` (centres unmarked), -4.2%.
With `O=C(c1cnn2c(C(F)F)cc(-c3ccccc3)nc12)N1CCCc2ccccc21`, the “hERG current change (%, negative = inhibition) at 1uM” value is -1.31%.
For `COC(=O)N/N=C/c1ccc(-c2ccccc2Cl)o1` the value was 8.96%.
As for `CCCCNC(=O)c1ccc(-n2c(=S)[nH]c3ccccc3c2=O)cc1`, the “hERG current change (%, negative = inhibition) at 1uM” value is recorded as 9.48%.
Under `CCN(CC(=O)NCc1ccc(F)cc1)CC(=O)Nc1ccc(S(=O)(=O)N2CCCC2)cc1` stands 13.2%; under `CN(C)C(=O)NC(O)C(Cl)(Cl)Cl` (centres unmarked), 12.6%; under `COc1cccc(N2CC(O)=C(c3ccccc3)C2=N)c1`, 12.5%.
Turning to `CCOC(=O)C1CC(c2ccc(Cl)cc2)=NNC1=O` (centres unmarked), the “hERG current change (%, negative = inhibition) at 1uM” value is reported as 10.6%.
Under `COc1ccc(CN(C)C(=O)c2ccccc2OCc2c(C)noc2C)cc1OC` stands 6.99%; under `COc1ccc(CCN(C)CCCC(C#N)(c2cc(OC)c(OC)c(OC)c2)C(C)C)cc1OC.Cl` (centres unmarked), -33.9%.
For the molecule `COc1ccc(NS(=O)(=O)Cc2ccccc2Cl)cn1`, the “hERG current change (%, negative = inhibition) at 1uM” value was found to be 8.75%.
Under `O=C(O)c1cccc(CSc2ncccn2)c1` stands 0.666%.
`Nc1c(C(=O)CCC(=O)O)oc2ccc(Cl)cc12`: the “hERG current change (%, negative = inhibition) at 1uM” value is given as 2.17%.
As to `CCN(CC)S(=O)(=O)c1ccc(N2CCCC2)c(NS(=O)(=O)c2ccc(OC)cc2)c1`, the “hERG current change (%, negative = inhibition) at 1uM” value was 0.351%.
For the molecule `O=C(c1ccccc1[N+](=O)[O-])N1CCCC(C(=O)N2CCCCCC2)C1` (centres unmarked), the “hERG current change (%, negative = inhibition) at 1uM” value came out at 9.43%.
Consider `S=c1[nH]nc(-c2cccnc2)n1Cc1ccccc1`, for which the “hERG current change (%, negative = inhibition) at 1uM” value stood at 6.79%.
For `O=C(NCc1cccnc1)Nc1ccc(F)cc1F` the value was 11.1%; for `COc1ccccc1N(CC(=O)NC(C)(C)C)C(=O)CCC(=O)Nc1ccccn1`, 14.6%.
Under `CC(=O)NCCC(=O)Nc1cc(S(=O)(=O)N2CCOCC2)ccc1Oc1ccc(F)cc1` stands 0.698%.
In the case of `Cc1ccsc1CN(C(=O)c1ccccc1)C1CCS(=O)(=O)C1` (centres unmarked), the “hERG current change (%, negative = inhibition) at 1uM” value was 10.1%.
For `O=[N+]([O-])c1cc(S(=O)(=O)[O-])cc([N+](=O)[O-])c1NN(c1ccccc1)c1ccccc1.[K+]` the value was 13.9%; for `COc1ccc(C(CNC(=O)c2ccco2)N2CCOCC2)cc1` (centres unmarked), 11.8%.
For `O=C(Nc1ccc(NC(=O)c2cccs2)cn1)c1ccco1` the value was 10.7%; for `NC(=O)c1ccsc1NC(=O)CSc1nnc(Nc2ccccc2)s1`, 15.7%; for `Cc1c(NC(=O)C(C)OC(=O)[C@@H](NC(=O)c2ccccc2)C(C)C)c(=O)n(-c2ccccc2)n1C` (some centres unmarked), -0.725%.
